Among all 310,000 compounds or so, about 14,000 (4.5%) showed an effect of 50% or more. Effects have a minus sign here. This is one part of the list.
biological target: human ether-à-go-go-related gene (hERG) potassium channel (human, UniProt Q12809); assay: primary screen, population patch clamp on CHO cells stably expressing hERG
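Also: peak tail current of the secondary pulse compared with the same well before compound.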

Chain of human ether-à-go-go-related gene (hERG) potassium channel (Q12809 whole entry, looked up): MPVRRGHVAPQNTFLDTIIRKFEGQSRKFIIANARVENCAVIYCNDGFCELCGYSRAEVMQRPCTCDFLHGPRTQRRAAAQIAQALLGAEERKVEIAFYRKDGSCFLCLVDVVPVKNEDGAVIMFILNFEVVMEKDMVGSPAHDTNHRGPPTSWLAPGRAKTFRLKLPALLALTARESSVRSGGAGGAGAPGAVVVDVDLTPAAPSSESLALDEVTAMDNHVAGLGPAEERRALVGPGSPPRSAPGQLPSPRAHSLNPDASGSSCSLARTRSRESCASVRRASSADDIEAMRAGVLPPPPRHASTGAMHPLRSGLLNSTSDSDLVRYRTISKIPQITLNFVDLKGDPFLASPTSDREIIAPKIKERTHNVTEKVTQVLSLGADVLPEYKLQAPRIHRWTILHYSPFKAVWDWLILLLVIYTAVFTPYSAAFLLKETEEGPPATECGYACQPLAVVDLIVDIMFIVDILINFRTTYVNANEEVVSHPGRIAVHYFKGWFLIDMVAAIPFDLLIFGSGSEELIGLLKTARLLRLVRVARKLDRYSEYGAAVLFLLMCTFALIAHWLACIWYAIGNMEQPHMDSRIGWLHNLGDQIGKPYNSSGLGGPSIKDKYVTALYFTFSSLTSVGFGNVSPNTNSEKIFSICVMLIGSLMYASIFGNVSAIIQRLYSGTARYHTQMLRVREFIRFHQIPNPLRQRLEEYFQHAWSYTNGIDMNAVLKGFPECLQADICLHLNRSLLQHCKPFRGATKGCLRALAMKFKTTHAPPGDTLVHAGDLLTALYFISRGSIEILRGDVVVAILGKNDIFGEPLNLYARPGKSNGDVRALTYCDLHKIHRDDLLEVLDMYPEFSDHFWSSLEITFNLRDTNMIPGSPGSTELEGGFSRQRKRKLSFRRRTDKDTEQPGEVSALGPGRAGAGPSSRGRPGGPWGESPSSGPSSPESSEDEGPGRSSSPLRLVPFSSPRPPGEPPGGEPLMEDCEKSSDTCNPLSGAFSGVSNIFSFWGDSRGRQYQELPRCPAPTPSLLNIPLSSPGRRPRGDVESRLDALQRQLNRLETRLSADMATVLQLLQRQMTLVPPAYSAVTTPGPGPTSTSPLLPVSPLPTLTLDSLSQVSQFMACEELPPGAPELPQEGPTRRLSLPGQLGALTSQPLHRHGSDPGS

Compound	hERG current change (%, negative = inhibition) at 10uM [%]
COc1c(C)cc(S(=O)(=O)NCCN2CCOCC2)c(C)c1C	-1.85
COc1ccccc1NC(=O)C1CCCN(S(=O)(=O)c2c(C)noc2C)C1 (stereo not shown)	-14.5
CCCC1COC(Cn2cncn2)(c2ccc(C)cc2)O1 (stereo not shown)	4.61
COc1ccc(N(C(C)C(=O)N/N=C(\C)C(C)(C)C)S(C)(=O)=O)cc1 (stereo not shown)	22.5
OCCCNC(=S)Nc1ccc(Oc2ccccc2)cc1	1.06
CCCN(CCC)S(=O)(=O)c1ccc(C(=O)Nc2ccc(S(=O)(=O)Nc3nnc(CC)s3)cc2)cc1	17.7
CN(C/C=C/C#CC(C)(C)C)Cc1cccc2ccccc12.Cl	11.3
CCOC(=O)c1ccc2[nH]c3c(c2c1)CCCC3NC=O (stereo not shown)	11.5
Cc1ccc(CCNC(=O)CN2C(=O)COc3ccc(S(=O)(=O)N4CCC(C)CC4)cc32)cc1	8.66
Cn1c(=O)n(CCOc2ccc([N+](=O)[O-])cc2)c2ccccc21	-65.3
Cc1ccc(S(=O)(=O)n2ccc(OC(=O)c3cccs3)n2)cc1	12.2
Cc1n[nH]c(C)c1Cc1ccc(C(=O)O)cc1	13.9
Cc1cc(C)n2nc(SCC(=O)N(C)Cc3ccccc3)nc2n1	-2.03
Cc1cc(Cl)ccc1OCC(=O)Nc1ccc2oc(=O)ccc2c1	10.1
COc1ccc(NC(=O)CS(=O)CC(=O)NCc2cccc(C(F)(F)F)c2)cc1 (stereo not shown)	-0.402
Cc1nc2cc(C(F)(F)F)ccc2n1CCNc1nc(-c2cc(Cl)c(N)c(Cl)c2)cs1	11.3
Cc1c(CN2CCCCC2)c(O)n(CCO)c(=O)c1C#N	13.4
CC(=O)Nc1ccc(S(=O)(=O)NCc2ccc(C(=O)NCc3ccc(Cl)cc3)cc2)cc1	-6.91
Cc1ccc(S(=O)(=O)NCc2c(Cl)cccc2Oc2ccccc2)cc1	16
C(=N\c1nc2ccccc2n1CCN1CCCCC1)/c1cccs1	-15.9
CCOc1ccc(S(=O)(=O)n2cnc3ccccc32)cc1	20.4
O=C(O)CCCNC(=O)c1cncc(Br)c1	12.2
Cc1ccc2oc(=O)c3cc(C(=O)Nc4cc(-c5cccc(F)c5)no4)sc3c2c1	-0.501

Compound	hERG current change (%, negative = inhibition) at 10uM [%]
O=C1CC(NCC2CCCO2)C(=O)N1c1ccc(F)cc1 (stereo not shown)	6.92
Cc1noc(/C=C/c2ccccn2)c1[N+](=O)[O-]	13.3
CCOC(=O)CNC(=O)CSc1nc(N)cc(N)n1	9.93
CSc1nc2c(c(=O)[nH]c(=O)n2C)n1Cc1ccc(Cl)cc1	6.47
Cc1ccc(/C=C2\C(=O)NC(=S)N(c3cccc(F)c3)C2=O)o1	2.73
CN(CC(=O)Nc1ccccc1Cl)C(=O)C1CCN(C(=O)c2ccc(F)cc2)CC1	-20.9
O=C(COC(=O)CCCOc1ccccc1)NC1CCS(=O)(=O)C1 (stereo not shown)	-3.01
COc1ccc(NCc2nnc(SCC(=O)Nc3ccccc3OC)o2)cc1	-5.75
O=C(NC12CC3CC(CC(C3)C1)C2)N1CCCC(CO)C1 (stereo not shown)	4.04
O=C(NCc1cccs1)C1CC(=O)N(c2ccccc2)C1 (stereo not shown)	-9.33
O=C1C=C(c2ccccc2Oc2ccccc2)C[C@@H](c2ccc3c(c2)OCO3)C1	6.04
CCOc1ccccc1C(=O)NCC(=O)N(C)Cc1ccccc1C	1.22
O=C(Nc1ccccc1C(=O)N1CCCC1)c1cccc(S(=O)(=O)N2CCCCC2)c1	-12.1
COC(=O)CNS(=O)(=O)c1ccc(C)cc1	8.15
CCCc1n[nH]c(=S)n1Cc1ccco1	7.81
O=C(N/N=C/c1cc(Cl)cc([N+](=O)[O-])c1O)c1cc(-c2ccccn2)nc2ccccc12	15.8
O=C(CN1CCc2ccccc2C1)Nc1ccc(F)cc1F	-24
CSc1ccccc1NC(=O)CN(C)C(=O)Cc1c(F)cccc1Cl	6.45
S=C(NCc1ccc2c(c1)OCO2)NC1CCN(Cc2ccccc2)CC1	20.6
CC1CCCC(C)N1NC(=S)Nc1ccc(OC(F)F)cc1 (stereo not shown)	-68.3
Cc1cc2cc(CNC(=O)NC3CCCCC3)ccc2[nH]1	-7.94
Clc1cccc(OCc2nc(-c3ccncc3)no2)c1	-5.46
Cc1nn(CC(=O)NC(=O)c2ccccc2)c(C)c1[N+](=O)[O-]	-18.5

Compound	hERG current change (%, negative = inhibition) at 10uM [%]
COc1cccc(-n2nnnc2SCC(=O)NC2CCCCC2)c1	3.1
COc1ccc(CC(=O)OCc2cc(=O)n3cc(Br)ccc3n2)cc1OC	-27.5
O=C(C1CCN(S(=O)(=O)N2CCC3(CC2)OCCO3)CC1)N1CCCCC1	3.78
NNC(=O)c1ccc(O)cc1O	-1.63
CCc1cc2c(SCC(=O)Nc3cc(C)on3)ncnc2s1	13.9
COc1ccc(C2NC(=S)NC(O)(C(F)(F)F)C2C(=O)c2cccs2)cc1 (stereo not shown)	12
O=C(CSc1n[nH]c(-c2ccccc2)n1)NC1CCCCC1	6.47
C/C(=N/NC(=O)c1ccc(C)s1)c1ccncc1	21
O=C(c1cnc2sccn2c1=O)N1CCc2ccccc2C1	2.07
Cc1nc(NC(=O)COC(=O)CCC(=O)c2cccs2)c(Cl)cc1Cl	21
COc1ccc(S(=O)(=O)N2CCN(CCOc3ccccc3Cl)CC2)cc1OC	-33.4
Cc1cc2nc(-c3ccc(SCC(=O)Nc4ccc5c(c4)OCCO5)nc3)[nH]c2cc1C	2.26
COc1ccccc1NC(=O)c1sc(Cl)nc1C	2.93
O=C(NCc1ccc(Cl)c(Cl)c1)c1cccnc1	-5.36
COc1cccc(Sc2cc(N3CCOCC3)nc(-c3ccccc3)n2)c1	-5.5
O=C(NNC(=O)c1ccccc1F)c1cccc(-n2cccc2)c1	-22.9
CCCOc1ccc(NC(=O)CC2C(=O)N(Cc3ccccc3)C(=S)N2Cc2cccs2)cc1 (stereo not shown)	7.68
CCOc1ccccc1N(C(C)=O)S(=O)(=O)c1ccc(Cl)cc1	-8.79
CCCCc1c(O)nc(SCC(=O)NCC2CCCO2)[nH]c1=O (stereo not shown)	4.14
COc1ccccc1N1CCN(/N=C\C(Br)=C\c2ccccc2)CC1	10.2
COCCCNC(=O)c1c(N)n(-c2ccc(S(N)(=O)=O)cc2)c2nc3ccccc3nc12	0.473
CSc1ccc(CN(C)C(=O)c2ccc(S(=O)(=O)Nc3ccccc3)cc2)cc1	-12.4
CCOc1nonc1C(=N)/C(C(C)=O)=C(\C)O	7.66

Compound	hERG current change (%, negative = inhibition) at 10uM [%]
O=c1cc(-c2ccccc2Cl)oc2c(NS(=O)(=O)c3cccc4nsnc34)ccc(O)c12	3.75
O=C1CCCc2[nH]c3cccc(/C(=C/c4ccccc4)c4ccccc4)c3c21	8.64
COc1cccc(OC)c1C(=O)Nc1cccc(C(C)=O)c1	-1.8
CCCCn1c(N)c(Sc2ccc([N+](=O)[O-])cc2)c(=O)[nH]c1=O	-79.5
O=C(c1ccccc1F)N1CCN(c2cccc(C(F)(F)F)c2)CC1	-36.5
CC(C)(C)N1CC(C(=O)Nc2ccc(S(=O)(=O)N3CCCCC3)cc2)CC1=O (stereo not shown)	0.361
O=C1c2ccccc2CN1Cc1ccccc1	9.91
CC1(C)C(c2ccccc2)=NC(c2cccnc2)=[N+]1[O-]	14.8
C=CCn1c(SCC(=O)c2ccc(O)c(O)c2)nnc1-c1ccccc1OC	3.16
COCCCNC(=O)CN1C(=O)COc2ccc(S(=O)(=O)N3CCCCCC3)cc21	12.2
O=S(=O)(NN=C1CCCCCC1)c1ccccc1	-0.144
CCN(CC)C(=O)CC(c1ccc(OC)cc1)c1c(O)cc(OC)cc1OC (stereo not shown)	-1.57
COc1ccc2nc(-c3ccccc3)[nH]c2c1	-1.4
O=C(COC(=O)Cc1cccc(C(F)(F)F)c1)NC1CC1	3.25
CC(C)Cn1c(N)c(C(=O)COC(=O)/C=C/c2ccccc2)c(=O)n(C)c1=O	-41.7
CCC(=O)c1ccc(OCC(O)CNCCc2ccc(Cl)cc2)cc1 (stereo not shown)	-72.1
O=C(Nc1cc(Cl)ccc1Cl)c1ccc(OC(=O)c2ccco2)cc1	-12.8
COc1cccc2sc(NC(=O)c3ccc(Br)s3)nc12	13.8
CCn1c(SCC(=O)N2CCCc3ccccc32)nc2ccccc2c1=O	-18.7
CCOC(=O)CCc1c(C)nc2c(c(C)nn2-c2ccccc2)c1C	11.7
Cc1cccc(Nc2ccccc2C(=O)OCC(=O)NCc2ccco2)c1C	-4.61
O=S(=O)(N/N=C\C=C\c1ccccc1)c1ccc(Cl)cc1	-7.56

— PMC4336329 (PLoS ONE, 2015)
